Assay results taken from patent publication US20230059341A1.

Experiments:
[1] = target: PD-1 protein constitutively expressed on engineered CHO K1 cells, Q15116; assay: MSD potency assay: competitive binding on CHO K1 cells expressing PD-1, inhibition of PD-L1-mFc binding, ECL; percent of reference material
[2] = target: human PD-1 on PD-1 effector cells (Jurkat T cells, Promega #J1155) (human), Q15116; assay: cell-based or functional assay
Chain of human PD-1 on PD-1 effector cells (Jurkat T cells, Promega #J1155) (human), Q15116 (Q15116 25-288): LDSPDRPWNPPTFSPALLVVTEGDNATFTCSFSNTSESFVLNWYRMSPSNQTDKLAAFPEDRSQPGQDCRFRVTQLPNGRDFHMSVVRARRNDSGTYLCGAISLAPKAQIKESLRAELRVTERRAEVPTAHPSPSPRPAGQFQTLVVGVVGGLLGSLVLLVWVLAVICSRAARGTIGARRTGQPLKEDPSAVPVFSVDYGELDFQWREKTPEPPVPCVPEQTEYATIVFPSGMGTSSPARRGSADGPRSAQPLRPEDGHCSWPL

Relative Potency, MSD Binding [1]: 85%
Relative Potency (Potency by cell-based bioassay) [2]: 96%
Relative Potency, Cell-Based Bioassay [2]: 96%
B1: Dostarlimab, base degraded, pH 9.0, 40° C., 1 week (antibody, human IgG4 S228P, kappa)
heavy: EVQLLESGGGLVQPGGSLRLSCAASGFTFSSYDMSWVRQAPGKGLEWVSTISGGGSYTYYQDSVKGRFTISRDNSKNTLYLQMNSLRAEDTAVYYCASPYYAMDYWGQGTTVTVSSASTKGPSVFPLAPCSRSTSESTAALGCLVKDYFPEPVTVSWNSGALTSGVHTFPAVLQSSGLYSLSSVVTVPSSSLGTKTYTCNVDHKPSNTKVDKRV[… human IgG4 Fc with S228P (EU numbers) …]
light: DIQLTQSPSFLSAYVGDRVTITCKASQDVGTAVAWYQQKPGKAPKLLIYWASTLHTGVPSRFSGSGSGTEFTLTISSLQPEDFATYYCQHYSSYPWTFGQGTKLEIKRTVAAPSVFIFPPSDEQLKSGTASVVCLLNNFYPREAKVQWKVDNALQSGNSQESVTEQDSKDSTYSLSSTLTLSKADYEKHKVYACEVTHQGLSSPVTKSFNRGEC
modifications: percent of population: Asn 137 deamidation 1.7; Asp 151/167 isomerization 3.1; percent of population: Asp 62 isomerization 2.3; Asn 84 deamidation 1.3; Asp 147 isomerization 20.8; Met 248 oxidation 7.1; Asp 261/266/276 isomerization 1.4; Asn 311 deamidation 7.1; Met 354 oxidation 1.2; Asn 380 deamidation 27.8; Asn 385 deamidation 27.2; Asn 357/Gln 358 deamidation 1.0; Met 424 oxidation 2.0; Asn …
